# Source: PubChem BioAssay AID1159614 (National Center for Advancing Translational Sciences (NCATS), 2016)
# In all, about 45,000 compounds went through this assay and about 65 (0.1%) were called active. The call rests on the fitted dose curve; in most records, active means well fitted activation curve with a large enough effect; inconclusive means small, poorly fitted or top-dose-only effect; inactive means no such curve, though single readings can be large or run the other way. This is one part of the list.
# Target: Galactocerebrosidase (Homo sapiens) (UniProt P54803)
# Test: A Novel Cell-Based Assay to Identify Small Molecules for B -Galactocerebrosidase; further: 0% is about no effect; nearly all actives have a fitted effect of over 65% in size
# Settings: 145M-Twi-hGALC-G270D cells, HMU-beta-Gal fluorescence, 48 h; series mostly up to 57.5 µM; activation: at the top concentration
# Method in brief: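 qHTS, 1536-well; 145M-Twi-hGALC-G270D cells (WT line also made) in DMEM/F12 + 10% FBS; compound incubation on live cells; HMU-β-gal 0.1 mM final, pH 5.2, NaTC; carbonate stop; fluorescence increase = enhanced residual activity.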
# Chain of UniProt P54803 (P54803 whole entry, looked up): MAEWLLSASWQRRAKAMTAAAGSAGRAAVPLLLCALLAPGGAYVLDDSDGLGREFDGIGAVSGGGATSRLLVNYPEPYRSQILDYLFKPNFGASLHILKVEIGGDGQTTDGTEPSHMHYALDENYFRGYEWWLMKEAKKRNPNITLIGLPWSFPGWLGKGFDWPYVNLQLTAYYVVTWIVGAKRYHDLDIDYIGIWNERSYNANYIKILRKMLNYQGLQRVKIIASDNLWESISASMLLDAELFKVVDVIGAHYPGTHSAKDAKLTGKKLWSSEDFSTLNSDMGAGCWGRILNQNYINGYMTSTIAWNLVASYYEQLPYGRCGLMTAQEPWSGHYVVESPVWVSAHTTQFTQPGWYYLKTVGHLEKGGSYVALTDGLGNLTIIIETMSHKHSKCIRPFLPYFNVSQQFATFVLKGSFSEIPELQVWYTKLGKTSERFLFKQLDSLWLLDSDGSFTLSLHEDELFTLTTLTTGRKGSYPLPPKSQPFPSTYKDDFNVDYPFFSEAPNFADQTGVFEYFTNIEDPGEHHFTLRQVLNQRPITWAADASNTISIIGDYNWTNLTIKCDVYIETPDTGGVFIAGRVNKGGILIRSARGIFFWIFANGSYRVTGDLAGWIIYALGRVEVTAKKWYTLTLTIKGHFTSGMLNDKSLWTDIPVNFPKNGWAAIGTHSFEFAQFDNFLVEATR
row,SMILES,activation
1,COc1ccccc1N1CCN(C(=O)c2cc3c(-c4ccccc4F)nn(C)c3s2)CC1,inactive: -7.43%
2,Cc1ccc(-n2c(=O)c3c(cnn3C)n(CC(=O)Nc3cccc(C)c3)c2=O)cc1,inactive: -7.23%
3,Cn1c(=O)n(C)c2cc(N3CCOCC3)c(NS(=O)(=O)c3ccc(Cl)cc3)cc21,inactive: -11%
4,CCCC(=O)Nc1cc(-c2nnc3c4ccccc4c(C)nn23)ccc1C,inactive: -4.22%
5,COc1cc2ccccc2cc1C(=O)N1CCN(c2nc3c(F)cc(F)cc3s2)CC1,inactive: -14.5%
6,Cc1ccc(C)c(OC(=O)CSc2nnc(-c3cccs3)o2)c1,inactive: -13.6%
7,COc1ccc2c(c1)CC(C(=O)NCCc1ccc(S(N)(=O)=O)cc1)CO2 (stereo unspecified),inactive: -5.89%
8,CCc1ccc(NC(=O)CCCc2nnc3n(CCCOC)c(=O)c4sccc4n23)cc1,inactive: -9.86%
9,CSc1cccc(NC(=O)CN2C(=O)CCc3cc(S(=O)(=O)N4CCCCC4)ccc32)c1,inactive: -9.01%
10,Cc1ccc(NC(=O)C(C)Sc2nc3c(c(=O)[nH]2)CCCC3)cc1Cl (stereo unspecified),inactive: -34.4%
11,CCOc1ccc(CNC(=O)C2CCCN(c3nn4cc(-c5ccc(F)cc5)nc4s3)C2)cc1 (stereo unspecified),inactive: -11.6%
12,COc1ccc(N2CCN(CCCNC(=O)c3ccc4nc(Cc5ccccc5)oc4c3)CC2)cc1,inactive: -5.07%
13,COC(=O)c1ccccc1NC(=O)Cn1c(=O)n(CCCC(=O)NCc2ccccc2Cl)c(=O)c2ccccc21,inactive: -6.72%
14,CCc1ccc2oc(-c3ccc(NC(=O)c4cccc(Cl)c4Cl)cc3)nc2c1,inactive: -20.6%
15,O=C(Cn1cnc2c(nc3n2CCCCC3)c1=O)Nc1cccc(C(F)(F)F)c1,inactive: -15.9%
16,CCOc1ccc(/C=C/c2nc(C#N)c(NCCCN(C)C)o2)cc1,inactive: -0.669%
17,O=C(COc1ccccc1Cl)N(Cc1cccc(F)c1)C1CCS(=O)(=O)C1 (stereo unspecified),inactive: -16.9%
18,CCOc1ccccc1NC(=O)CSc1ccc2nc(-c3ccccc3)cn2n1,inactive: -10.1%
19,Cc1ccc(N2C(=O)CCSC23C(=O)N(Cc2ccc(F)cc2)c2ccccc23)cc1 (stereo unspecified),inactive: -0.411%
20,CCOc1cccc(C(=O)N(Cc2ccc(F)cc2)Cc2ccco2)c1,inactive: -11.9%
21,COc1ccc(OC)c(NC(=O)Cn2c(=O)n(-c3ccc(Cl)cc3)c(=O)c3c(C)c(C)sc32)c1,inactive: 3.37%

row,SMILES,activation
1,O=C1CC(c2ccc(F)cc2F)c2cc3c(cc2N1)OCO3 (stereo unspecified),inactive: 0.409%
2,COc1ccc(Cl)cc1NC(=O)C1CCN(S(=O)(=O)c2ccc(F)cc2)CC1,inactive: -17.5%
3,COc1ccc(C(=O)N(c2ccc(C)cc2)S(=O)(=O)c2ccc(C)cc2)cc1,inactive: -3.82%
4,COCCn1c(SCC(=O)c2ccc(F)cc2)nc2cc(C(=O)NC3CCCC3)ccc2c1=O,inactive: -5.33%
5,Cc1ccc(N2C(=O)CS(=O)(=O)C23C(=O)N(Cc2ccc(Cl)cc2)c2ccccc23)cc1C (stereo unspecified),inactive: -27.1%
6,CCc1cccc(CC)c1NC(=O)Cn1nnc2sc3c(c2c1=O)CCCC3,inactive: -16.8%
7,CCOC(=O)c1c(NC(=O)COc2ccc(C(C)(C)C)cc2)sc2c1CCCC2,inactive: 0.747%
8,Cc1ccc(Cc2nc3ccccc3nc2SCC(=O)NCc2ccccc2Cl)cc1,inactive: -8.05%
9,Cc1ccc(NC(=O)c2c(C)nn(-c3ccccc3)c2-n2cccc2)c(Cl)c1,inactive: 15.9%
10,COC(=O)c1ccccc1NC(=O)Cn1c(CCC(=O)O)ccc1-c1ccc(C)cc1,inactive: -6.68%
11,Cc1ccc2c(c1)N(C(=O)CCC(=O)NCc1cccs1)CC(C)O2 (stereo unspecified),inactive: -0.591%
12,CCOC(=O)C1CCN(C(=O)Cn2ncc3c4ccccc4n(Cc4ccccc4)c3c2=O)CC1,inactive: -23.8%
13,Cc1cccc(CC(=O)Nc2c(C(=O)Nc3cccc(F)c3)oc3ccccc23)c1,inactive: -11.5%
14,CC1CCN(C(=O)CSc2nnc(NC(=O)Nc3ccccc3)s2)CC1,inactive: -35.9%
15,Clc1cccc(-n2ncc3c(NCCCN4CCOCC4)ncnc32)c1,inactive: -15.3%
16,CCOc1ccccc1C(=O)NCc1ccc2c(c1)CCN2C(=O)c1ccccc1,inactive: -14.9%
17,Cc1cccc(Nc2nc3c(S(=O)(=O)c4ccc(Br)cc4)nnn3c3ccsc23)c1C,inactive: -17.9%
18,Cc1cc(C)c2oc(-c3cccc(NC(=O)COc4ccccc4Cl)c3C)nc2c1,inactive: -11.4%
19,Cc1ccc(NC(=O)CCSc2nc(-c3ccc4c(c3)OCO4)cc(C(F)(F)F)n2)c(C)c1,inactive: -3.57%
20,CC1=C(C(=O)Nc2cccnc2)C(c2ccccc2Cl)n2nc(-c3ccccc3)nc2N1 (stereo unspecified),inactive: -0.451%
21,Cc1cc(NC(=O)CSc2ncc(C(=O)Nc3ccc(C)c(C)c3)c(=O)n2C)no1,inactive: -3.35%

row,SMILES,activation
1,COc1ccc(CCNC(=O)c2ccc(Cn3c(SCC(=O)NCCC(C)C)nc4cc5c(cc4c3=O)OCO5)cc2)cc1OC,inactive: -15.5%
2,CS(=O)(=O)c1ncc(Cl)c(C(=O)Nc2c(C(=O)c3ccc(Cl)cc3)oc3ccccc23)n1,inactive: -27.3%
3,COc1cccc(-c2nc3c(C#N)c[nH]n3c2NC2CCC(C)CC2)c1 (stereo unspecified),inactive: -13.8%
4,Cc1ccc(C2CC(=O)n3nc(-c4cccc(C)c4)nc3S2)cc1 (stereo unspecified),inactive: -20.3%
5,COc1cc(-c2ccno2)ccc1S(=O)(=O)N1CCN(c2ccccc2)CC1,inactive: 3.24%
6,CC(C)C(=O)Nc1nnc(SCc2cc(=O)n3ccccc3n2)s1,inactive: 2.91%
7,CN(C)c1ccc(CNC(=O)C2CCN(S(=O)(=O)c3ccc4[nH]c(=O)ccc4c3)CC2)cc1,inactive: -14.2%
8,Cc1ccc2nc(CN3CCN(S(=O)(=O)c4ccc(C)c(C)c4)CC3)oc2c1,inactive: -18%
9,CC(=O)c1c(C)n(-c2ccc(C)cc2)c2ccc(OC(=O)COc3ccccc3)cc12,inactive: -9.73%
10,O=C(Nc1ccc2oc(-c3ccc4ccccc4c3)nc2c1)c1cc(Cl)ccc1Cl,inactive: 4.87%
11,CCn1c(=O)c2cc(C(=O)NCCc3ccc(Cl)cc3)sc2c2ccccc21,inactive: -16.3%
12,CCn1c(=O)c2sccc2n2c(CCC(=O)Nc3ccc(C(C)C)cc3)nnc12,inactive: -8.18%
13,Cc1ccc(N(C)C(=O)C2CCN(S(=O)(=O)c3cn(C)cn3)CC2)cc1,inactive: -9.83%
14,CC1CCN(CCCNC(=O)CN2C(=O)CSc3ccc(S(=O)(=O)N4CCOCC4)cc32)CC1,inactive: -7.35%
15,COc1cc(C2c3c(oc4ccccc4c3=O)C(=O)N2Cc2ccc(C)cc2)ccc1O (stereo unspecified),inactive: -29.5%
16,COc1ccc(OCC(=O)NC(Cc2c[nH]c3ccccc23)C(=O)O)cc1 (stereo unspecified),inactive: -9.99%
17,CCc1nnc(SC(CC)C(=O)Nc2cc(C)ccc2C)c2cc3occc3n12 (stereo unspecified),inactive: -15.5%
18,CC1(COc2ccc(CC3SC(=O)NC3=O)cc2)CCCCC1 (stereo unspecified),inactive: -13%
19,CN(C)CCc1c[nH]c2ccc(CS(=O)(=O)N3CCCC3)cc12,inactive: -3.67%
